Assay results as given in PubChem BioAssay AID445 (National Center for Advancing Translational Sciences (NCATS), 2006).
Among all 110,000 compounds or so, about 40 (0.04%) were called active. This list was built around the results that the source calls inconclusive (neither active nor inactive); the mix of calls is not that of the screen. Calls come from the whole dose curve; as a rule, active = well fitted curve in the direction sought with a large enough effect in the signal ratio (not every such curve was filed as active); inconclusive = small, poorly fitted or top-dose-only effect, or a change in a side signal; inactive = flat fitted curve, though single readings scatter; the % refers to the signal ratio. A potency beside an inconclusive call is a rough fit, not a confirmed value.

Test: IkB Signaling;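 for IkBa stabilization activation: 0% = basal untreated cells and 100% = reference inhibitor full response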
Settings: ABC-DLBCL IkBa-CBG/CBR dual luciferase ratio (green luciferase fused to IkBa over red control in OCI-Ly3 lymphoma cells), 4 h, scaled: untreated 0%
Summary of the method: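 Curves were fitted separately to fusion (green), unfused (red) and ratio luminescence, then classed by r2, magnitude and activity. Cells: OCI-Ly3, 4 h compound plus doxycycline at 37C; 10 uM MG-132 defined full response.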

[1] = IkBa stabilization activation: at 57.1 µM (top of the series), proteasome inhibitor 100% unless noted
Potency is the fitted concentration of half-maximal effect.

## Cc1ccc(CN(Cc2ccco2)C(=O)COc2c(C)cc(C)cc2C)cc1
[1]
  IkBa stabilization activation: inconclusive: -0.438% [signal inhibitor]

## Oc1ccc(-c2nc3ccccn3c2Nc2ccc3c(c2)OCCO3)cc1
[1]
  IkBa stabilization activation: inconclusive: 16.1% [signal inhibitor]

## CCOC(=O)Nc1oc2ccccc2c(=O)c1CN1CCOCC1
[1]
  IkBa stabilization activation: inactive

## COCCNC(=O)CSc1c2c(nc3cc(Cl)ccc13)CCCC2
[1]
  IkBa stabilization activation: inconclusive: 8.36%

## CCCc1nn2c(=O)cc(COC(=O)c3cccc(NC(=O)CCc4ccccc4)c3)nc2s1
[1]
  IkBa stabilization activation: inconclusive: 17.4% [signal inhibitor]

## Cc1cc(C)c2c(c1)-c1c(ssc1=S)C(C)(C)N2C(=O)CSc1nncn1C
[1]
  IkBa stabilization activation: inconclusive: -1.34% [signal inhibitor]

## CCOc1ccc(CNC(=O)C2CCN(S(=O)(=O)N3CCCCC3)CC2)cc1
[1]
  IkBa stabilization activation: inconclusive: -0.521% [signal inhibitor]

## COc1cccc(C(=O)Nc2cc(-c3cn4cccnc4n3)ccc2C)c1OC
[1]
  IkBa stabilization activation: inactive

## CCOc1ccc(NC(=O)c2sc3nc4c(cc3c2N)CCCCCC4)cc1
[1]
  IkBa stabilization activation: inactive

## O=C1Cc2c([nH]c3ccc(Br)cc23)-c2ccccc2N1
[1]
  IkBa stabilization activation: inconclusive: -0.307% [signal inhibitor]
  Potency: inconclusive: 1.26 µM [signal inhibitor, partial curve]

## Cc1ccccc1Cn1nc(C)c(NC(=O)c2noc3c2CC(C(C)(C)C)CC3)c1C (configuration not stated)
[1]
  IkBa stabilization activation: inconclusive: 7.16% [signal inhibitor]

## O=C(Nc1ccc(CN2CCOCC2)cc1)c1cc2ccccn2n1
[1]
  IkBa stabilization activation: inactive

## Cc1ccc(OCC(=O)Nc2ccccc2C(=O)OCc2cc(=O)n3nc(C4CC4)sc3n2)cc1
[1]
  IkBa stabilization activation: inconclusive: 9.85% [signal inhibitor]

## CC1CCN(C(=O)c2c(NC(=O)c3ccccc3F)sc3c2CCC(C(C)(C)C)C3)CC1 (configuration not stated)
[1]
  IkBa stabilization activation: inconclusive: 6.87% [signal inhibitor]

## CCOc1cc(C2C(C(=O)OC)=C(C)NC3=C2C(=O)c2ccccc23)c(Br)cc1OC (configuration not stated)
[1]
  IkBa stabilization activation: inconclusive: 6.02% [signal inhibitor]

## Nc1nc(-c2ccccc2)nc(-c2ccccc2O)n1
[1]
  IkBa stabilization activation: inconclusive: -2.34% [signal inhibitor]

## Cn1c(/N=C/c2c(O)ccc3ccccc23)nc2ccccc21
[1]
  IkBa stabilization activation: inconclusive: 10.6% [signal inhibitor]

## CCn1c(COc2ccc(C)cc2)nnc1SCC(=O)Nc1cc(OC)ccc1OC
[1]
  IkBa stabilization activation: inconclusive: 2.1% [signal inhibitor]

## CCCCN(CCCNC(=O)CN1N=C(c2ccccc2)CCC1=O)c1ccccc1
[1]
  IkBa stabilization activation: inconclusive: 2.15% [signal inhibitor]

## O=c1c(-c2ccccc2)nc2cnc(Oc3ccccc3)nc2n1C[C@H]1CCCO1
[1]
  IkBa stabilization activation: inactive: -2.81% [at 11.4 µM, scaled: untreated 0%, proteasome inhibitor 100%]

## O=C(COc1ccccc1Cl)Nc1nc2c(s1)CCCC2
[1]
  IkBa stabilization activation: inactive

## CC(=O)Nc1nonc1-c1nnc(SCc2ccc(F)cc2)n1C
[1]
  IkBa stabilization activation: inactive

## O=C(Nc1ccc2c(c1)OCO2)C1CCN(S(=O)(=O)c2cccs2)CC1
[1]
  IkBa stabilization activation: inactive

## CCCCSc1nnc2n(-c3cccc(C)c3)c(=O)c3c4c(sc3n12)CCCC4
[1]
  IkBa stabilization activation: inconclusive: 20.2% [signal inhibitor]

## COc1ccc(NC(=O)CSc2nc3ccccc3[nH]2)cc1
[1]
  IkBa stabilization activation: inconclusive: 1.82% [signal inhibitor]

## CCOC(=O)C1CCN(C(=O)CSc2n[nH]c(-c3ccccc3)n2)CC1
[1]
  IkBa stabilization activation: inactive

## Cc1ccc(C)c(N2CCN(C(=O)Cn3c(=O)c4cccn4c4ccc(F)cc43)CC2)c1
[1]
  IkBa stabilization activation: inactive

## O=C(c1cccc(F)c1)N1CCC2(CC1)CCN(c1ccncc1)CC2
[1]
  IkBa stabilization activation: inactive: -0.758% [at 11.4 µM, scaled: untreated 0%, proteasome inhibitor 100%]

## CCCCC(CC)CNC(=O)CCCc1nnc2n(CCC)c(=O)c3sccc3n12 (configuration not stated)
[1]
  IkBa stabilization activation: inconclusive: 1.77% [signal inhibitor]

## Cc1ccc(NC(=O)CSCn2nnc3c(=O)[nH]c(Cc4ccc(F)cc4)nc32)c(C)c1
[1]
  IkBa stabilization activation: inactive

## Cc1cccc(N2CCN(C(=O)c3ccc4c(c3)N(Cc3ccccc3F)C(=O)c3ccccc3S4=O)CC2C)c1 (configuration not stated)
[1]
  IkBa stabilization activation: inconclusive: 3.97% [signal inhibitor]

## COc1cc2c(=O)c(C(=O)c3ccc(C)c(C)c3)cn(Cc3ccccc3)c2cc1OC
[1]
  IkBa stabilization activation: inconclusive: 4.59% [signal inhibitor]

## COc1ccc(-c2cc3nc(C)c(CCC(=O)N4CCN(c5ccccc5)CC4)c(C)n3n2)c(OC)c1
[1]
  Potency: inconclusive: 15.8 µM [signal inhibitor, partial curve]

## C=CCn1c(-c2cccs2)nc2ccccc21
[1]
  IkBa stabilization activation: inactive

## CC(CC1C(C#N)=C(N)SC(N)=C1C#N)c1ccccc1 (configuration not stated)
[1]
  IkBa stabilization activation: inactive

## Cc1cc(C)c2nc(NC(=O)c3ccc(S(=O)(=O)N4CCCC4)cc3)sc2c1
[1]
  IkBa stabilization activation: inconclusive: -2.53% [signal inhibitor]

## Cc1nn(C)c(C)c1CNC(=O)c1cc2n(n1)C(C(F)(F)F)CC(c1cccs1)N2 (configuration not stated)
[1]
  IkBa stabilization activation: inconclusive: 1.92% [signal inhibitor]

## CCOC(=O)c1c(S(=O)(=O)N2CCC(C(=O)N3CCN(c4cccc(C)c4C)CC3)CC2)c(C)n(C)c1C
[1]
  IkBa stabilization activation: inactive

## Cc1ccccc1-c1nnc(CN2CCN(c3cc(Cl)ccc3C)CC2)o1
[1]
  IkBa stabilization activation: inactive

## CN1CCN(C(=O)C2CCN(S(=O)(=O)c3ccc4c(c3)oc(=O)n4C)CC2)CC1
[1]
  IkBa stabilization activation: inactive

## Cc1ccc(-c2nnc(N3CCCCC3)c3ccccc23)cc1S(=O)(=O)N1CCN(C)CC1
[1]
  IkBa stabilization activation: inconclusive: 3.29% [signal inhibitor]

## COc1ccc(C2CC(=O)c3cnc(NC(=O)c4cc(OC)cc(OC)c4)nc3C2)cc1 (configuration not stated)
[1]
  IkBa stabilization activation: inconclusive: 13% [signal inhibitor]

## O=C(CSc1nnc(COc2ccc(Cl)cc2)o1)Nc1ccccc1
[1]
  IkBa stabilization activation: inconclusive: 11% [signal inhibitor]

## COC(=O)c1c(C)oc2ccc(N(C(=O)c3ccncc3)S(=O)(=O)c3cc(C)c(C)cc3C)cc12
[1]
  IkBa stabilization activation: inconclusive: 7.35% [signal inhibitor]

## COc1ccc2c(c1)c(CC(=O)N1CCOCC1)c(C)n2C(=O)c1ccc(Cl)cc1
[1]
  IkBa stabilization activation: inconclusive: 0.91% [signal inhibitor]
At 57.1 µM (top of the series), proteasome inhibitor 100%
  IkBa stabilization activation: inactive: 4.05%

## COCCn1c(=N)c(C(=O)NCc2ccco2)cc2c(=O)n3ccccc3nc21
[1]
  IkBa stabilization activation: inactive

## CCC(CC)C(=O)Nc1nnc(SCC(=O)N2CCN(c3ccccc3OC)CC2)s1
[1]
  IkBa stabilization activation: inconclusive: 4.06% [signal inhibitor]

## COc1ccc(-n2nc(C(=O)NCCc3ccc(Cl)cc3)c3c4ccccc4n(C)c3c2=O)cc1Cl
[1]
  IkBa stabilization activation: inconclusive: -2.08% [signal inhibitor]

## O=c1c2cn[nH]c2nc(SCc2ccc3c(c2)OCCO3)n1-c1ccccc1
[1]
  IkBa stabilization activation: inconclusive: -8.8% [signal inhibitor]

## N#C/C(=C\c1ccc(-c2ccccc2C(=O)O)o1)c1nc2ccccc2[nH]1
[1]
  Potency: inconclusive: 20 µM [signal inhibitor, partial curve]

## Cc1ccc(-c2cc(C(F)F)nc(N3CCC(C)CC3)n2)cc1
[1]
  IkBa stabilization activation: inactive

## O=c1c2ccccc2nc(-c2ccccc2)n1CCN1CCOCC1
[1]
  IkBa stabilization activation: inactive

## O=C(Nc1ccc(N2CCOCC2)cc1)C1CC1
[1]
  IkBa stabilization activation: inactive

## COc1cc(C2NC(=O)NC(c3ccccc3)=C2C(C)=O)ccc1OCC(=O)O (configuration not stated)
[1]
  IkBa stabilization activation: inconclusive: 13.5% [signal inhibitor]

## CCCNS(=O)(=O)c1ccc(CCC(=O)N2CCCCC2)cc1
[1]
  IkBa stabilization activation: inconclusive: 0.657% [signal inhibitor]

## CCc1noc(-c2ccc(NC(C)c3ccccc3)c([N+](=O)[O-])c2)n1 (configuration not stated)
[1]
  IkBa stabilization activation: inactive

## CCN(CC)C(=O)C1=C(C)Nc2nc3ccccc3n2C1c1ccc(Br)cc1 (configuration not stated)
[1]
  IkBa stabilization activation: inconclusive: 1.73% [signal inhibitor]

## CC(=O)c1cccc(NC(=O)CCS(=O)(=O)c2cc3c(cc2C)NC(=O)CO3)c1
[1]
  IkBa stabilization activation: inconclusive: -1.2% [signal inhibitor]

## Cc1ccc(CNC(=O)C2c3ccccc3C(=O)N(C)C2c2c[nH]c3ccccc23)o1 (configuration not stated)
[1]
  Potency: inconclusive: 25.1 µM [signal inhibitor, partial curve]

## Cc1ccc2nc(/C(C#N)=C/c3cccc(Br)c3)[nH]c2c1
[1]
  IkBa stabilization activation: inactive

## CN(C)S(=O)(=O)n1cc(/C=C(\NC(=O)c2ccccc2F)C(=O)NCCCn2ccnc2)c2ccccc21
[1]
  IkBa stabilization activation: inconclusive: 1.86% [signal inhibitor]

## Cc1ccccc1CN1CCC(CNc2ncnc3onc(-c4ccc(Cl)cc4)c23)CC1
[1]
  IkBa stabilization activation: inconclusive: 2.45% [signal inhibitor]

## Cc1nc2sccn2c1-c1nc(-c2cc3ccccc3o2)cs1
[1]
  IkBa stabilization activation: inconclusive: 1.35% [signal inhibitor]

## CCOc1ccc(NC(=O)c2c(NC(=O)c3ccco3)sc3c2CCC(C(C)(C)C)C3)cc1 (configuration not stated)
[1]
  IkBa stabilization activation: inconclusive: 2.93% [signal inhibitor]

## COc1cc(NS(=O)(=O)c2ccc(NC(=O)C(C)Oc3ccc(Cl)cc3Cl)cc2)nc(OC)n1 (configuration not stated)
[1]
  IkBa stabilization activation: inconclusive: 16.2% [signal inhibitor]

## N#CC(C(=O)NC1CC1)c1nc2ccccc2nc1N1CCCC1 (configuration not stated)
[1]
  IkBa stabilization activation: inactive

## COc1ccc(Nc2c(-c3ccc(Cl)cc3)nc3cnccn23)cc1OC
[1]
  IkBa stabilization activation: inconclusive: 5.57% [signal inhibitor]

## COc1cc(Cn2c(N)c(C#N)c3nc4ccccc4nc32)cc(OC)c1
[1]
  IkBa stabilization activation: inactive

## CC(O)c1ccc2c(c1)OCCOCCN(C)CCOCCO2 (configuration not stated)
[1]
  IkBa stabilization activation: inconclusive: -2.8% [signal activator]

## Cc1cccc(N2C(=O)C(CC(=O)Nc3cccc(F)c3)N(Cc3cccs3)C2=O)c1 (configuration not stated)
[1]
  IkBa stabilization activation: inconclusive: 1.96% [signal inhibitor]
